Experimental data as given in the supplement of paper PMC11417369.
± gives the standard deviation of the averaged measurements. This is one part of the list.

System: PfAP2-LT AP2 domain (GST-tagged)
Assay: gcPBM binding intensity (ln(normalized median fluorescence intensity)); higher = stronger DNA binding
Summary of the method: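 GST-tagged P. falciparum DNA-binding domains produced in E. coli were incubated for 1 h on an Agilent 4 × 180k array of primer-extended double-stranded 36-bp intergenic genomic probes with negative controls. Binding intensity is the highest Masliner-normalised natural-log median intensity across replicate spots of either probe orientation, with bound protein detected by Alexa488 anti-GST antibody at 488 nm.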

Sequence	gcPBM binding intensity (ln)
GAAGAAAAAGAAAAAAGTACATATATTATATTATAA [XGTACX_site7870]	8.53 ± 0.61
GTTTTTAAATATGCCATACACACTACTATATAATAA [CACACA_site1927]	8.71 ± 0.35
TAATATATTAATTTTTGTACTTAATTATATGTTTTT [XGTACX_site5654]	8.62 ± 0.45
TAAGATGATATAGACTGTACATATTGAACTTACAAG [XGTACX_site4290]	8.69 ± 0.49
TATGAAATGCTCCAATCACACATGAATGTAATATAT [CACACA_site5458]	8.73 ± 0.35
ATATGATTTATAAAGTGTACCTTATTATAAGAAACA [XGTACX_site7914]	8.48 ± 0.45
TTTTTTTTTTTTAGAGTACACACTTTTTTACATTTA [CACACA_site3836]	8.65 ± 0.52
GTTGAAAATACAGAACGTACACGTTTGCCATATTGT [XGTACX_site2254]	8.96 ± 0.39
AGTTATAAAATATTTGCATGTAAATATATTATCTAT [TGCATGCA_site1015]	8.74 ± 0.37
ACTTTTATTATTTATATACACACTTGCTGAAATGTT [CACACA_site3637]	9.31 ± 0.47
ATAAAAAAAAGAAAAACACACACATATATATATATA [CACACA_site8243]	9.77 ± 0.27
ATAATAATAGTAATATGTACATATATATATATATAT [XGTACX_site7437]	9.77 ± 0.33
ATATATATATATATATGTACATATTTACATTTTGTA [XGTACX_site3529]	9.89 ± 0.36
AATAAAGGAGCCTATGAACACACACCGGTACATATA [CACACA_site9352]	9.33 ± 0.51
TATACACATTCGCGTTGTACAAAAAAAAAAAAAAAG [XGTACX_site2880]	8.76 ± 0.52
AAGATGAACCTTTACACATGCAACAAAAAATATACA [TGCATGCA_site166]	8.81 ± 0.55
ATCAACATTATGTTTAGTACTTAGTGAATTGTTAAT [XGTACX_site4913]	8.79 ± 0.28
TTTTTATGATTATACTTATATAATTTCATGATTGAA [CACACA_negctrl_site228]	8.45 ± 0.48
AATATTTCTATATGAACATGCAATGTATCTTTTTAT [TGCATGCA_site738]	8.7 ± 0.4

Sequence	gcPBM binding intensity (ln)
AATACTTACCAAAATACACACACACCCAAAATATAT [CACACA_site8559]	9.85 ± 0.31
TTTATTTTATCATTTGCACACGCACCCCCACATAAA [CACACA_site8007]	9.52 ± 0.14
TTCTAAATTAATAATACACACTTGCTAAAATCATTA [CACACA_site5733]	8.5 ± 0.45
TTCTTATATTGTACAGTACACACCTTTATAATGTTA [CACACA_site7953]	9.15 ± 0.49
ATATAAATAACGTGTACACACATATGTATTTATATA [CACACA_site6520]	9.12 ± 0.31
ATTCTCCATGTTTGATGTACTCATATGACGACGGAG [XGTACX_site4923]	8.81 ± 0.33
AATTATATTTGAAATACACACATAAAAACCATATAG [CACACA_site7598]	9.12 ± 0.28
TCAAAAAAGACACACCGTACATACTATTTGGACAGG [XGTACX_site7699]	8.97 ± 0.34
ATTTTTATTTTATATACACACAATAATACTAGAATA [CACACA_site7810]	8.78 ± 0.5
AGATATATAAAATATACACACAGTAATATTTATATA [CACACA_site6767]	8.89 ± 0.33
ATATATATCTACATATGTACATATATACATTACACA [XGTACX_site7210]	9.06 ± 0.33
ATTTCATATGGTCAACGTACTCATGCATCCCTCCTT [XGTACX_site437]	9.05 ± 0.6
TAAATTTTTTTTTTGATGCACTTAGTTATTATATTT	8.68 ± 0.47
ATAACAATTATTTATCTACACACTTTTATGTTATTT [CACACA_site7886]	9.07 ± 0.48
AATGGCAAAATAGGCACACACACATATACAGATATA [CACACA_site4726]	9.77 ± 0.42
ATATATATATATATATGTACATATAATTTTTTTTTT [XGTACX_site6948]	9.56 ± 0.16
TTTATATTAATTTGTGTAAATGCATATGATGAGCAT [XGTACX_negctrl_site254]	8.52 ± 0.35
AAAAATAAAACAATTACACACATAATTTTATTTTTA [CACACA_site928]	8.76 ± 0.38
TCCAAAATATCCTTCACACACGAACAGTTTCATTTA [CACACA_site5511]	8.96 ± 0.49

Sequence	gcPBM binding intensity (ln)
ATTAAGTCTTATATTACACACGACATTGTAATGTAA [CACACA_site528]	8.86 ± 0.25
ATTCCACTGTTTTAGTGTACTGGTCGTTTTTTTTTT [XGTACX_site1738]	9.18 ± 0.45
AATTTTTTATACACAAGTACAAACGCGTAGTCACTT [XGTACX_site2458]	8.86 ± 0.42
TGGACCAAACGACAAAAAAAAAGCAGAAAACAAAAA [GTGCAC_negctrl_site693]	8.84 ± 0.53
AAATAAAGAATATAAATACACACTTAAATATATATT [CACACA_site4007]	8.88 ± 0.47
TTTTTAAAAAAAAAAAAATAAAAAAAAAAAAAATAT [XGTACX_negctrl_site7]	8.3 ± 0.48
ATTTATATATTTATATGTACATATCTATACATATAT [XGTACX_site7580]	9.38 ± 0.67
GAATTTTTGACGATATAGGAAATAATTATCCTGAAG [XGTACX_negctrl_site61]	8.51 ± 0.29
CTGTTAATTATATATTGTACAAAAGATATGATTATA [XGTACX_site6927]	8.55 ± 0.35
ACAAAAAAATAAAATATATATATATATATAATATAT [CACACA_negctrl_site805]	8.98 ± 0.43
ATAATAAAATAAATCACACATAATATAATGTAATAT [CACACA_site6144]	8.98 ± 0.4
TATATTTACATTGTAACACACATGAAATATTTATAT [CACACA_site6178]	8.86 ± 0.39
ATGTACATTTTTTTCACACATACATTAATTTATGAG [CACACA_site5801]	8.8 ± 0.43
TATGTTATATTATAAGGATAAATTTTGATTATATAA [TGCATGCA_negctrl_site600]	8.19 ± 0.43
AGAATAAAAAGGAACACACACACACCCATATATATA [CACACA_site3590]	10.1 ± 0.5
TAGACTAATCCCAAAAGTACAGAAAAATTATATTAT [XGTACX_site8663]	8.65 ± 0.42
TAATTTCTTATGTATTGTACATATAATATATGATAT [XGTACX_site4898]	8.76 ± 0.46
AAAATAAATAGATAAGCACACAAGCATATAGACATA [CACACA_site7958]	9.37 ± 0.55
